Source: the RNAGym collection of RNA variant scans (doi:10.1073/pnas.2313332121)
Variants at the background level are over-represented here.

B1: TPR 5TU (parent)
chain: GGAUCUUCUCGAUCUAACAAAAAAGACAAAUCUGCCACAAAGCUUGAGAGCAUCUUCGGAUGCAGAGGCGGCAGCCUUCGGUGGCGCGAUAGCGCCAACGUUCUCAACUAUGACACGCAAAACGCGUGCUCCGUUGAAUGGAGUUUAUCAUG

Variants of: B1
Assay: polymerase ribozyme fitness, log enrichment relative to wild type (log ratio); higher = more active; in vitro selection for triplet polymerase activity
Summary of the method: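 Only genotypes with ≥10 input reads and ≥1 read per output were kept after Illumina sequencing of input and output libraries. These libraries were PCR-built, transcribed mutants of each subunit of a heterodimeric triplet polymerase ribozyme, each put through one triplicate in vitro selection round with frozen incubation at −7 °C, gel excision of extended constructs, streptavidin-bead capture and RT-PCR. Fitness is a logarithmic ratio of genotype enrichment to wild-type enrichment, from inverse-variance-weighted replicate averages, with the logarithm in base 2.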

Polymerase ribozyme fitness (log ratio), ≤ -4.2:
G81A G128C G143C
A73G A91G U102A G143A
C69A C87U G88C A97C G117C
G80U C93G A119U G141A A147U U148G
G68C G84C A106G G124A
G84A C108G A110G
G71A A91U C103A G117U
G67A C93U C116G U127C
G68A G84U A89U G94A
U78A G84U A91C C108A A121C
C72A G84U A107U A147C
C69U U102G G126A C132U U134A U151G
G70A U78C G94C A98G G100C U104G G117A U151A G152U
G84A A91G U127G
G71A C76G G100U
C72A G80A C96A
G68C C76G U90C C95A C105G
C75U C87A A137G A147C
G83A G92A A107G G143C
G83A A91U
A66U G68U U145G U146C
G71U C79G
C75U A91G G140A
G84A A110G G136A A147C
C72U G81U C85U A91C U101G A106U U139A
C85A G92C G94A C99A C108A A122U
G80C G100A A115U G136C U139G
C79G C96A G126U U144G
C85G C96A G143C
C85G A106U A137C
C85G G100U
C79A A91G
C76G G88A U102C
G68C C85G A98G A122U
C69U U77G G86C C87U A91G G117U
G80U C85A C96U C118U A120U G133U
G84A C87U A97U A120C G143A U144G
C69A U111C
U78G C105G U145G
G71A G94U C96U G100U A106U C114U
C79G C105G U109G
C76G G83A U102A
G84U G100U
C85G G88U A89G C93U
G67U A107U
C79U C93A C99A G126A G141U G152A
A66U C76U U101G C108G U146A
G67A C87A A110U A121G
C79G C87A C105G G141C
C79A G136U U139A
C76G C85U
A73G C87A G117A
G67A G68A C95A A119U C129A A138G C149A
A73C G86U U109G
G68A C95U C108A
C85G C105U C149A
G81A C108U G140C
C76U C93G G141C
U77C C85U C95U U109G U111G C118G U139A A150C
C75G C87A A120C G141C
G68A C96A C125A
U77C G86U C108A
C69A G70A G86U U90A A115G C125G A138G
A66C U78C
G80A G94A C105G A107U
U78A U90A A106C
G68U C85U C123U C129U G143U
A66C U135G
A73G G84C C96U C114U A137C
C72U C76A A91G C93U G124U U151G
G83A A107G G133U A137G
C76G G81C G84A A97C C99G U104A A142C U151A
G74A C85U A106U A138U
G68A C103G
A73G U90G A119G
G70U G84U U101G
A66U A73G C85G A113G U144C
U78G A119C A137C G152U
C79U C87A C99U U101C
C79U A91U A122G U134C U135A U148A
C85A G88C C103G A110C
G80U G92A C149U
G83U C93U U127C U144C
C69U C75U U82G U148C
A66U G74U C149G
C69A C79A C85G C105G G126U U144C U148A
U78A C93G
C76A G80A G136C C149U
G71C C93A A97C C103G U104G
G74A C76G
U82A U130G G141A U145G
U77G C79U C85U
G80A U139A G143U U146C
C69U C96U A97U G100C
G67A C75G G83U G128U
G83U A106G U127A
G83U G141A G143C A150G
A66U C85U A115U U139G U148C
G81U C87U C95G C116G U139A
C79A G84C
C75G G84A A122U C132U
G83U C129G U148A
U77A C85U U146G
C72G C93A A119G G126A U134C
C75G C85G G112U G140C
G80A A98U U104C C105U A106C
G71U C149G
A66C U82G C96U C118G G143C
A66C U90A A91U U101G U102A G126U
C79G G152A
A73U A137C
G83A C87G A89G
C75G C85U G140U
C79G G94C
G67U C69G G133U
G83C A110U U135A G141U
G71A G80C A91U
U78G G94U C105U A150U
G81C C87G G141C
C76A C85U U151A
G68C G128U
G68A G88C U102G
G84U G88C G117A C123U
G80C C85G A106C U139G
A66U G83U C85A C105A A106U C131G G143C
G67A G84A G133U A147C
G74C U134A U135C A138G
C79G G81A C85A U144A
C79A C105A
C85A C96G G141C U146C
G71C C76U G86A C87G U104G
G84A A110U A113C A115U C116U
G71C C131A U134G G136A U139A
C85A C99G A142G
U78G C103A U148C
A73C G88U U130G
U77G G86A G133A
G71A C95A C99A U127C
C75G C85G
G84U C87G G141C U145C
G68U C79G A107U C123A A137U A150G
G67U G74U C87A C108U
C69A C75A G84C C116U G117C A150C
C85G C114A U146C
A73G G94A C125A G133U
U77C C95G C96A
U77G G126A
G68A G80C U102C A138U A142C
C72A A107G U139A
C72G G133U
G71C C76G
U77C C79G U82A G86A U145A
U82G A113C C114U A147G
C79U G81A C93U U102A
C76U U104C U109G C118G G141C
C79G G84A U134G
A66U C75G C85U G94A G143C
C76G G94C A150C
G83A C96U C123G G126C A138C U148A
U77A C96A A137U
G70U C87A A91G U111C A137U
C72U U130G G133U
G80A A98G C105A C118G A147C
G68C C87G A107G C114G G124U
C69U G84A U101G C116U G133U
U82A G86U C95U C96U A106C C131G
U78G G83U A120U G136C A137G
